According to PubChem BioAssay AID485297 (National Center for Advancing Translational Sciences (NCATS), 2010):
Hit rate of the full screen: of about 320,000 compounds, about 9,100 (2.8%) were called active. The inconclusive results got no clear call from the source; some entries with a clear call stand among them for comparison. Calls come from the whole dose curve; as a rule, active = well fitted activation curve with a large enough effect; inconclusive = small, poorly fitted or top-dose-only effect; inactive = no such curve, though single readings can be large or run the other way. No potency is given beside an inconclusive call; the fits are too rough.

test: qHTS Assay for Rab9 Promoter Activators; conditions: Huh7 Rab9 promoter-luciferase reporter, luminescence, 24 h; series mostly up to 9.22 µM; note: nearly all actives have a fitted effect of over 60% in size
Method in brief: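 Huh7 reporter line, Rab9 promoter upstream of luciferase. Compound exposure 24 h at 37 °C in reduced-serum medium with 10% FBS. Read-out: luminescence.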
Potency is the fitted concentration of half-maximal effect; tags give direction and shape of the fitted curve.

Row | SMILES | Potency
1 | C/C(=N/Nc1nc(C)cc(-c2ccccc2)n1)c1ccco1 | inconclusive [activator, partial curve, poor fit]
2 | CCOC(=O)Cn1cnc2c(sc3nc(C)cc(C)c32)c1=O | inconclusive [activator, single point]
3 | O=C(CN1C(=O)COc2ccc(Cl)cc21)NCC1CCCO1 (stereo not given) | inconclusive [activator, full curve]
4 | CCC(=O)Nc1nc(-c2cc([N+](=O)[O-])cs2)cs1 | inconclusive [activator, partial curve]
5 | CCSc1nnc(-c2ccc(Cl)cc2Cl)o1 | inconclusive [activator, single point]
6 | Cc1ccc(-c2ccc(SCC(=O)Nc3cc(C)on3)nn2)cc1 | inconclusive [activator, single point]
7 | Cc1cc(C(=O)Nc2ccc3c(c2)OCO3)cs1 | active: 1.26 µM
8 | CCC(=O)Nc1sc2c(c1C#N)CCCCC2 | inconclusive [activator, single point]
9 | CCOC(=O)C1CCN(C(=O)c2cc3c(-c4ccc(OC)c(OC)c4)nn(C)c3s2)CC1 | inactive
10 | Cc1ccc(C(=O)OCC(=O)N2CCOCC2)cc1 | inconclusive [activator, single point]
11 | Cc1ccc(OCC(=O)Nc2sc3c(c2C#N)CCC3)cc1 | inconclusive [activator, partial curve]
12 | Cc1ccc(-c2cc3ncc(C#N)c(N)n3n2)cc1 | active: 2.82 µM
13 | COc1ccc2c(c1)CCc1cn[nH]c1-2 | inactive
14 | CCOC(=O)c1ccccc1NC(=S)N1CCN(C2CCCCC2)CC1 | inactive
15 | O=c1[nH]c(N/N=C/c2ccc(O)cc2)nc2ccccc12 | active: 2.24 µM
16 | COc1cc(/C=C2/NC(=O)NC2=O)ccc1OCC(=O)Nc1ccc(F)cc1 | inactive
17 | CCN(CC)c1ccc(NC(=O)c2cncc(Br)c2)cc1 | inconclusive [activator, single point]
18 | CC1CCN(C2=NC(=O)/C(=C/c3ccccc3F)S2)CC1 | inactive
19 | N#CCCN1CCCc2cc(N=Nc3ccc(C(F)(F)F)cc3)ccc21 | inconclusive [activator, single point]
20 | CSc1nc(-c2ccc(Cl)cc2)nn1S(=O)(=O)c1ccc(Cl)cc1 | active: 3.55 µM
21 | CCOc1ccc2oc(C(=O)NC(C)(C)CC)c(C)c2c1 | active: 2.51 µM
22 | CCOc1cc(/C=C2\N=C3CCCCCN3C2=O)ccc1O | inconclusive [activator, single point]
23 | O=C(c1cc(-c2cccs2)on1)N1CCCCC1 | active: 0.562 µM
24 | CCN(CC)c1ccc(C=Nc2ccccc2C)c(O)c1 | inconclusive [activator, partial curve]
25 | CCCCCCCCCCC(C)(C)C(=O)Nc1c(OC)cc(OC)cc1OC | inactive
26 | COCC(=O)Nc1ccc(OCc2ccccc2)cc1 | inconclusive [activator, single point]
27 | CC(C)CN(C(=O)c1cc2ccccc2o1)c1c(N)n(CC(C)C)c(=O)[nH]c1=O | inactive

Row | SMILES | Potency
28 | COc1ccc(CCNC(=O)Cn2nnc(-c3ccc(N4CCOCC4)cc3)n2)cc1OC | inconclusive [activator, partial curve]
29 | Cc1ccc2cc(CCNC(=O)c3cccs3)c(=O)[nH]c2c1C | active: 2.82 µM
30 | N/C(=N\OC(=O)c1cc(Cl)ccc1Cl)c1ccncc1 | inconclusive [activator, partial curve, poor fit]
31 | Cc1sc2ncn(/N=C/c3ccco3)c(=O)c2c1C | inconclusive [activator, single point]
32 | Cc1ccccc1Nc1nc(N)nc(CSc2nnc3ccccn23)n1 | inconclusive [activator, partial curve]
33 | CC1CCCCN1C(=O)CSc1nc2ccccc2[nH]1 (stereo not given) | inconclusive [activator, single point]
34 | Cc1ccsc1/C=N/NC(=O)c1ccc([N+](=O)[O-])cc1 | inconclusive [activator, partial curve]
35 | COc1ccccc1-n1ccn(CC(=O)Nc2ccc(C)cc2Cl)c(=O)c1=O | inactive
36 | O=C(CSCc1ccc(Cl)cc1)NN=C1CCCCCC1 | inconclusive [activator, single point]
37 | CCOc1cnc(-c2ccc(OC)cc2)o1 | inconclusive [activator, single point]
38 | Cc1ccc(NC(=O)c2ccc3nc[nH]c3c2)nc1 | inactive
39 | Cc1ccc(-c2nnc(CSc3nnc(C)s3)o2)cc1 | inconclusive [activator, partial curve]
40 | CC(=O)c1ccc(NC(=S)NCCc2ccc(S(N)(=O)=O)cc2)cc1 | inconclusive [activator, partial curve]
41 | CC(C)(C)N(NC(=O)Nc1ccc(Cl)c(Cl)c1)C(=O)c1ccccc1 | inactive
42 | CCN1CCN(c2nnc(-c3ccccc3)c3ccccc23)CC1 | inactive
43 | CCN(CC(=O)NCCCn1ccnc1)S(=O)(=O)c1ccc(C)cc1 | inactive
44 | N#C/C(=C/c1ccc(CNC(=O)C(=O)Nc2cc(Cl)cc(Cl)c2)o1)C(=O)NCc1cccnc1 | inactive
45 | CC(=O)Nc1ccc(OCC(=O)N2CCC(Cc3ccccc3)CC2)cc1 | inactive
46 | Cc1ccc(CNC(=O)Cn2ncn3cccc3c2=O)cc1 | active: 2.51 µM
47 | O=C(CCS(=O)(=O)c1cccs1)N1CCN(c2ccc(F)cc2)CC1 | inconclusive [activator, partial curve]
48 | CN(C)c1ccc(/C=C/c2cccc[n+]2[O-])cc1 | active: 2.51 µM
49 | O=C(NC1CCCC1)c1cc(-c2cccs2)on1 | active: 2 µM
50 | Cc1ccc([N+](=O)[O-])cc1N/C=C1\CCc2ccccc2C1=O | inconclusive [activator, single point]
51 | CCCCC(=O)Nc1nc2c(s1)COc1ccccc1-2 | inconclusive [activator, single point]
52 | O=C1CC2C(CC(OC(=O)c3ccc(-c4ccccc4)cc3)C2CO)O1 (stereo not given) | inconclusive [activator, single point]
53 | O=C(c1cccs1)c1coc2ccc(O)cc12 | inactive
54 | Cc1ccc(NC(=O)Nc2cccs2)cc1 | active: 2.24 µM

Row | SMILES | Potency
55 | CCCCC(=O)Nc1cnc(NC(=O)c2ccco2)cc1C | inconclusive [activator, partial curve]
56 | COc1ccccc1C(=O)O/N=C(\N)c1ccccc1Cl | inconclusive [activator, single point]
57 | Cc1ccc(NC(=O)c2sc3nc(N)c(C#N)cc3c2N)cc1 | inconclusive [activator, partial curve]
58 | COCCNC(=O)COc1ccc(C)cc1C | inactive
59 | Cc1nnc(N/N=C\c2ccc(-c3cccc(C(=O)O)c3)o2)n1N | inconclusive [activator, partial curve]
60 | O=C(CCN1C(=O)c2cccc3cccc(c23)C1=O)N1CCOCC1 | inconclusive [activator, single point]
61 | COC(=O)c1sc(Nc2ccccc2)nc1C | inconclusive [activator, single point]
62 | CCOC(=O)c1nn(-c2ccc(F)cc2)c(=O)c(C#N)c1C | inactive
63 | CCn1c(/C=N/c2nc3ccccc3n2C)nc2ccccc21 | inactive
64 | CCOC(=O)c1ccc(CNC(=O)c2cc(COc3ccccc3SC)on2)o1 | inconclusive [activator, partial curve]
65 | O=C(Nc1cccc(O)c1)c1noc2c1CCCCC2 | inconclusive [activator, single point]
66 | CCN(CC)S(=O)(=O)c1cc(NC(=O)c2n[nH]c(=O)c3ccccc23)ccc1C | inconclusive [activator, partial curve]
67 | Cc1ccc(Nc2nc3ccccc3c(=O)[nH]2)cc1C | inconclusive [activator, partial curve]
68 | COc1cccc(-n2c(SCC(=O)Nc3nccs3)nnc2-c2ccoc2C)c1 | inactive
69 | Cc1cccc(NC(=O)COc2ccc3c(c2)CCC3)n1 | inconclusive [activator, single point]
70 | COc1ccc(NC(=O)C2CCCN(c3ncccn3)C2)cc1 (stereo not given) | active: 2.82 µM
71 | Brc1cc2c(cc1COc1ccc(-c3nn[nH]n3)cc1)OCO2 | inactive
72 | CC(C)n1cnc2cc(NCc3ccco3)ccc21 | inconclusive [activator, single point]
73 | Fc1ccc(NC(=S)NN=C2CCCCCC2)cc1 | inconclusive [activator, partial curve]
74 | CCCOc1ccc(C(=O)Nc2ccc(N(C)C)cc2)cc1 | inconclusive [activator, partial curve]
75 | Cc1cc(C)n2nc(C(=O)Nc3ccn(Cc4ccccc4C)n3)cc2n1 | inactive
76 | O=C(Nc1cc(-c2ccccc2)cs1)c1ccco1 | active: 3.55 µM
77 | CC(=O)c1cccc(CN2CCCCC2C(=O)Nc2ccc(Oc3ccccc3)nc2)c1 (stereo not given) | inactive
78 | NC(=O)c1ccccc1NC(=O)/C=C/c1ccc(Cl)cc1 | active: 2.51 µM
79 | O=C(/C=C/c1ccc2c(c1)OCO2)Nc1nc2ccccc2s1 | active: 0.794 µM
80 | CCOc1cc(-c2ccccc2)nc(N)n1 | inconclusive [activator, single point]
